According to PubChem BioAssay AID463173 (ICCB-Longwood Screening Facility, Harvard Medical School, 2010):
Hit rate of the full screen: of about 52,000 compounds, about 4,300 (8.3%) were called active. Rule as the data show it: active = survival mostly below about 52% (no sharp cut-off); inactive = mostly above about 56%. The list shows a part of the results.

The compounds below were run on DeltatarO mutant (assay: S. aureus survival, RN4220 and DeltatarO strains – OD600, teichoic acid synthesis inhibitors, primary screen (AID 463173)). Conditions: S. aureus RN4220 wild type/DeltatarO growth, OD600, 18 h, stronger effect = lower value, screened at 18.75 µg/mL (by protocol).

SMILES | survival
CCOC(=O)c1ccc(NC(=O)c2cccc3c(=O)c4c([nH]c23)CCCC4)cc1 | inactive: 60%
COc1ccc(NC(=O)Cn2ccn(Cc3ccccc3)c(=O)c2=O)cc1Cl | inactive: 50%
CN(C(=O)CSc1cn(CC(=O)N2CCCC2)c2ccccc12)c1ccccc1 | inactive: 55%
O=C(Nc1ccc(Br)cc1F)c1ccc2nc(CCc3ccccc3)oc2c1 | inactive: 92%
O=C1c2[nH]nc(-c3ccccc3O)c2C(c2cccc(Br)c2)N1Cc1ccncc1 (configuration not stated) | inactive: 85%
CCCCOc1ccc(S(=O)(=O)Nc2ccc(-c3ccc(N4CCCCC4)nn3)cc2)cc1 | inactive: 77%
Cc1cccc2c1-c1sc(C(=O)Nc3ccccc3C(N)=O)cc1CO2 | inactive: 110%
CCC(=O)Nc1cc(-c2nc3cc(C)cc(C)c3o2)ccc1C | inactive: 65%
Cc1ccccc1OCC(=O)NCC(c1ccc(Cl)cc1)N1CCOCC1 (configuration not stated) | inactive: 70%
Cc1cc(C)cc(NC(c2cccc(Cl)c2)c2nnc(-c3ccccc3)o2)c1 (configuration not stated) | inactive: 92%
Cc1c(C(=O)N(C)c2ccccc2)sc2nc(-c3ccc(F)cc3)cn12 | inactive: 78%
CCc1cc2c(cc3c(=O)n(CC(=O)NC4CCC(C)CC4)nc(CC)n32)s1 (configuration not stated) | inactive: 115%
O=C1c2oc3ccccc3c(=O)c2C(c2ccccc2F)N1Cc1ccc2c(c1)OCO2 (configuration not stated) | inactive: 77%
COc1cc2c(cc1OC)C(COc1ccccc1OC)N(C(=O)c1ccc(S(=O)(=O)N3CCCC3)cc1)CC2 (configuration not stated) | active: 32%
Cc1ccc(C)c(NC(=O)N2CCN(c3nnc(C)c4c(C)n(-c5ccccc5)nc34)CC2)c1 | inactive: 88%
CCOC(=O)c1cc(-c2ccccc2)n(-c2cccc(C(=O)NC(C)CC)c2)c1C (configuration not stated) | inactive: 49%
NC(=O)Cn1cnc2sc3c(c2c1=O)CCCC3 | inactive: 65%
O=C(Cn1ncc2c3ccccc3n(Cc3ccc(F)cc3)c2c1=O)NC1CCCCCC1 | inactive: 80%
COc1ccc(Nc2nc(-c3ccccc3)c3cc(Br)ccc3n2)cc1 | active: 23%

SMILES | survival
Cc1ccc(N(C)S(=O)(=O)c2ccc(-c3cnc(C4CC4)o3)cc2)cc1 | inactive: 67%
CC(C)Oc1ccc(CNC(=O)c2ccc3c(c2)N(Cc2ccc(F)cc2)CCS3)cc1 | inactive: 65%
O=C(C1CCCCC1)N(Cc1cccnc1)c1nc2c(F)cccc2s1 | inactive: 86%
Clc1ccccc1CNc1nc2ccccc2c2nc(-c3ccccc3)nn12 | inactive: 108%
CCOc1ccc(NC(=O)CSc2ccc3ccccc3n2)cc1 | inactive: 67%
COCCCNC(=O)CN1C(=O)COc2ccc(S(=O)(=O)N3CCOCC3)cc21 | inactive: 110%
O=C(CCNS(=O)(=O)c1cccc2nonc12)Nc1ccc(F)cc1 | active: 45%
COC(=O)CSCc1nc(-c2ccc(C(=O)OC)cc2)oc1C | inactive: 78%
NC(=O)CSc1nc2ccccc2c(=O)n1Cc1ccco1 | inactive: 72%
COC(=O)c1cccc(Nc2c(-c3ccc(O)cc3)nc3nc[nH]n23)c1 | inactive: 144%
COc1ccc(N2CCN(C(=O)c3cn(C4CCCCC4)c(=O)c4c3c3ccccc3n4C)CC2)cc1 | inactive: 87%
CCC(C)NC(=O)C1CCCN(S(=O)(=O)c2ccc(C)c(Cl)c2)C1 (configuration not stated) | inactive: 94%
Cc1cc(C)c(S(=O)(=O)Nc2ccc(-c3ccc(N4CCCCC4)nn3)cc2)c(C)c1 | inactive: 77%
CCOc1ccccc1NC(=O)c1c(NC(=O)Cc2ccccc2)sc2c1CCCC2 | inactive: 81%
COc1ccc(C)cc1NC(=O)CN1CCCN(S(=O)(=O)c2ccc(Br)cc2)CC1 | inactive: 108%
CCNc1ccc2noc3c2c1C(=O)c1ccccc1-3 | inactive: 74%
CCOc1ccc(-c2c(C)nn3c(C)c(C(=O)NCC(C)c4ccccc4)cnc23)cc1OCC (configuration not stated) | inactive: 81%
CCCCNS(=O)(=O)c1ccc(S(=O)(=O)n2cnc3ccccc32)cc1 | inactive: 107%
Cc1c(CNC(C)c2ccccc2)c(C(=O)O)c(C)n1Cc1c(F)cccc1Cl (configuration not stated) | inactive: 78%

SMILES | survival
CCOC(=O)C1CCCN(C(=O)c2cc3c(=O)n(C)c4ccccc4c3s2)C1 (configuration not stated) | active: 44%
CC(C)(C)c1nc(NCc2cccs2)c2nnn(Cc3ccccc3Cl)c2n1 | inactive: 84%
O=C(Nc1ccccc1C(F)(F)F)c1noc2c1CCCCC2 | inactive: 66%
CCCc1nn(C)c2c(=O)[nH]c(-c3cc(S(=O)(=O)N4CCN(C)CC4)ccc3OCC)nc12 | inactive: 69%
CCc1cccc(C)c1Nc1c(-c2ccc(N3CCOCC3)cc2)nc2ncccn12 | inactive: 75%
CC(=O)c1ccc(NC(=O)C2CCCN(S(=O)(=O)c3cn(C)cn3)C2)cc1 (configuration not stated) | inactive: 94%
COc1cc(-c2noc(-c3nnn(-c4ccc(Cl)cc4)c3C)n2)cc(OC)c1OC | inactive: 81%
CCc1ccc(N2C(=O)CS(=O)(=O)C23C(=O)N(Cc2ccccc2)c2ccccc23)cc1 (configuration not stated) | inactive: 66%
Cc1ccc(-n2nc(CO)c(C(=O)NCCc3ccccc3)n2)cc1C | inactive: 111%
CN(C)CCCNc1c2c(nc3cc(-c4cccc(F)c4)nn13)CCC2 | inactive: 103%
COc1ccc(Cn2c(C(=O)O)c(CNCCc3ccccc3Cl)c3ccc(C)cc32)cc1 | inactive: 80%
Cc1ccc(-n2nc3c(=O)n(C(C)C(=O)O)nc(C)c3c2C)cc1 (configuration not stated) | inactive: 101%
O=C(O)c1ccc(N=NN2CCCCC2)cc1 | inactive: 75%
COc1cccc(CNC(=O)Cn2c(=O)oc3cc(S(=O)(=O)N4CCC(C)CC4)ccc32)c1 | inactive: 124%
CCOC(=O)N1CCN(C(=O)CN(Cc2ccc(F)cc2)S(=O)(=O)c2ccc(C)cc2)CC1 | inactive: 87%
CCC(=O)N1CCc2cc(S(=O)(=O)CCC(=O)NCc3ccc(F)cc3)ccc21 | inactive: 90%
Cc1cccc(NC(=O)CSc2nnc(-c3ccoc3C)n2CC(C)C)c1C | inactive: 52%
c1ccc2oc(SCc3nc4c5c6c(sc5ncn4n3)CCCC6)nc2c1 | inactive: 67%
Cc1c2cnn(CC(=O)Nc3ccc(F)cc3F)c(=O)c2c(C)n1Cc1cccc(Cl)c1 | inactive: 89%
